Article PMC7819943, “Rice protein-binding microarrays: a tool to detect cis-acting elements near promoter regions in rice”
The list shows a part of the results.

What follows are sequences tested against T1, OsWOX13 (Oryza sativa, UniProt Q5QMM3 1-267) (assay: protein-binding microarray (RPBM); PBS, 2% BSA, 51.3 ng/ul salmon testes DNA, 50 uM zinc acetate, 200 nM TF, 25 C, 1 h; high values mean tight binding). Settings: protein: recombinant; tags: N-terminal polyhistidine and DsRed monomer fusion (pET32a); label: CyDye5-dUTP incorporated in the synthesized complementary strand; 3' TTTTT single-stranded linker to array surface; dsDNA, one strand shown.
T1 sequence: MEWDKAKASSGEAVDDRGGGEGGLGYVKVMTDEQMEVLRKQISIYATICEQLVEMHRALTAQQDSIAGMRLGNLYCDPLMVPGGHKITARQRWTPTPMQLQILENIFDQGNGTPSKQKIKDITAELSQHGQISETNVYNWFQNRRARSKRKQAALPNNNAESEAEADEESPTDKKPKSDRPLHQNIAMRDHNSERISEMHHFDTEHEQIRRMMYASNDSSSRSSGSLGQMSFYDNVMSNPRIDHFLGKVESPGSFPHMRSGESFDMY
In short: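 Per-feature fluorescence intensity (arbitrary units), read on an Axon 4000B scanner, is the binding signal. Transcription factors carrying an N-terminal polyhistidine tag and DsRed fusion were expressed in E. coli BL21-CodonPlus and purified on Ni–NTA. A custom Agilent array, made double-stranded by primer extension with Cy5-dUTP and blocked with 2% BSA, was incubated with 200 nM protein in PBS, 2% BSA, salmon testes DNA and 50 µM zinc acetate at 25 °C for 1 h and then washed.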

Sequence | binding signal
ATGATTGTGAGTGGACCAAATTATACTTACCGAGCATTAACGGAGTCACCTAGTGCAG | 28600 fluorescence intensity (a.u.)
GTCATTGTTGTGAATTGACTGCTGCTGTTTACTTACAGGACGGAGTCACCTAGTGCAG | 3520 fluorescence intensity (a.u.)
ATTAAGTCAAATACTCTAATTAACCATAAATATAAGCACTCGGAGTCACCTAGTGCAG | 3800 fluorescence intensity (a.u.)
CCTGTTGATTGGTTAGCCCAGCCCATGATGTAGCCCATGACGGAGTCACCTAGTGCAG | 38200 fluorescence intensity (a.u.)
ATATAAATGTAAATTTTAAATTTATTTTATCTAATACTTACGGAGTCACCTAGTGCAG | 9130 fluorescence intensity (a.u.)
TACTAGATTGAGGTGGTTAGTGACTCTAGGATCACCGCAACGGAGTCACCTAGTGCAG | 18000 fluorescence intensity (a.u.)
ATGTCCCAATTAATTTAACGGTTTCTACTGTAAATTAATGCGGAGTCACCTAGTGCAG | 15200 fluorescence intensity (a.u.)
ACATGGGTTAATTACTTCCTTGTCTAGCCATACGGGGAAACGGAGTCACCTAGTGCAG | 4360 fluorescence intensity (a.u.)
CTGCAATTACCAGCATAAATCAATCAATCGGAAAAGCAGACGGAGTCACCTAGTGCAG | 30500 fluorescence intensity (a.u.)
GTGCTTTGTACTGATCTGATTGCCTTCGCCTCATCATAATCGGAGTCACCTAGTGCAG | 5280 fluorescence intensity (a.u.)
ATCACTGTATACGAATAAATTGATTACTTGTAATTGATAACGGAGTCACCTAGTGCAG | 14300 fluorescence intensity (a.u.)
TAATGATTAGAGACTATGTTGTCTCTAACTGTTGTAAGATCGGAGTCACCTAGTGCAG | 26000 fluorescence intensity (a.u.)
CAAATCAGATGTGGACTTGATTTAGTCTTTTAATTTGTTACGGAGTCACCTAGTGCAG | 6510 fluorescence intensity (a.u.)
GAAAGAGTAATTACATCTAGAGACTGAATGCCTCATTGCCCGGAGTCACCTAGTGCAG | 9180 fluorescence intensity (a.u.)
CCTAATTGCATGATAGATGACAGTTAAGGCAGCCCAGCCACGGAGTCACCTAGTGCAG | 41100 fluorescence intensity (a.u.)
CTGCCACTCAATCAAATCAACCAGATAATATTTCCAAACCCGGAGTCACCTAGTGCAG | 14900 fluorescence intensity (a.u.)
TTTATGTCAAACGTTTGACAGTCCATCTTATTTACAAATTCGGAGTCACCTAGTGCAG | 3210 fluorescence intensity (a.u.)
GGCTTAATAGGTAACGTTTTCGAAGGATAGAGACAAGTTGCGGAGTCACCTAGTGCAG | 9910 fluorescence intensity (a.u.)
TATTCAATATTAGATTTAAATGTAACTATTTTAGTATTGTCGGAGTCACCTAGTGCAG | 3630 fluorescence intensity (a.u.)
GTTAAGTCAAGTTTCCAATCAGCAGAATGTTCCCAGTGGTCGGAGTCACCTAGTGCAG | 8800 fluorescence intensity (a.u.)
TCTGATTGTGAGTCTACGTAGACAAGTATGCAACTAGCACCGGAGTCACCTAGTGCAG | 22300 fluorescence intensity (a.u.)
GGAGATTGACACGTTGGTCTACGTGCCTATGCGTGTGTTCCGGAGTCACCTAGTGCAG | 55600 fluorescence intensity (a.u.)
CAGCAAGCATGATTGAGAATAGTAAAGGGATGACACGGCACGGAGTCACCTAGTGCAG | 19900 fluorescence intensity (a.u.)
CTTACTTAATTGCAGCGAGATAATTTAGAATTGATGCCTTCGGAGTCACCTAGTGCAG | 38100 fluorescence intensity (a.u.)
ACCTTGACGAAATCATTTGTCTTCTTTTGGAGAACTTTTGCGGAGTCACCTAGTGCAG | 7260 fluorescence intensity (a.u.)
GTAATCACGTAATCACGCCCAGCATCCAGAACGTTCCTCCCGGAGTCACCTAGTGCAG | 6780 fluorescence intensity (a.u.)
CCCTTGATTTACTTGATAATTTGTTATAGGTCCCTATCCCCGGAGTCACCTAGTGCAG | 53400 fluorescence intensity (a.u.)

Sequence | binding signal
AATTTACCCTCATTAATTCAATTTAGCTCTGATGTGCATGCGGAGTCACCTAGTGCAG | 3240 fluorescence intensity (a.u.)
GGTAGATATCAATCACCCTCAATGCAAAACCAATCTCTTTCGGAGTCACCTAGTGCAG | 21500 fluorescence intensity (a.u.)
TACTATTAATCAATCACATATAATTAACAATTAGTGTGATCGGAGTCACCTAGTGCAG | 41200 fluorescence intensity (a.u.)
GCACCCAAGTATAATTAACAAATTTATATTTCCTTTATATCGGAGTCACCTAGTGCAG | 5070 fluorescence intensity (a.u.)
ATCAAATTGCCAAGTAAGCGCCACGTTATTACCAAGACTGCGGAGTCACCTAGTGCAG | 6970 fluorescence intensity (a.u.)
CTAATTTATTCCCTGCAACATTCCATTCCGTTAACTTGCACGGAGTCACCTAGTGCAG | 3610 fluorescence intensity (a.u.)
TATTGTATTGATTGAGGTGATTCATGATAACCATGAAATACGGAGTCACCTAGTGCAG | 12400 fluorescence intensity (a.u.)
CTTGACTGGGAGTGTCAGATCAAAGACGATGGATGATTGCCGGAGTCACCTAGTGCAG | 24000 fluorescence intensity (a.u.)
TGTTGACAGAAAATCCCACCTCTCATCTTTCAAAATTTAGCGGAGTCACCTAGTGCAG | 8540 fluorescence intensity (a.u.)
TTGATTGCCAGCTGCACTCTGCATCCCAAGAAGACCTTGTCGGAGTCACCTAGTGCAG | 42400 fluorescence intensity (a.u.)
GCCAGGATTAATTAGATGTCCTCGTTAAGGATGAGGAAAACGGAGTCACCTAGTGCAG | 11200 fluorescence intensity (a.u.)
CTTGATTAGAATGTTTAATAACTTGTATCCGTCATGCCTGCGGAGTCACCTAGTGCAG | 60200 fluorescence intensity (a.u.)
TTTTAGATTGGACGGCTGGTAAAGCAGCATGTGCTTGCTGCGGAGTCACCTAGTGCAG | 33300 fluorescence intensity (a.u.)
GAAAATAGTGTTAAATTATCAAATCTCTCAGTTAGGAGGACGGAGTCACCTAGTGCAG | 6320 fluorescence intensity (a.u.)
TTCAACAGTTAATTTAGGCTATTTTGGCTTCAATCCAAACCGGAGTCACCTAGTGCAG | 4960 fluorescence intensity (a.u.)
ATCTTCCAATCTAAAAGGGATTGAGTAGTATATATATATCCGGAGTCACCTAGTGCAG | 6320 fluorescence intensity (a.u.)
CACAAATTACTTTTCATTTGCGAATATACCGTTTTGCTTACGGAGTCACCTAGTGCAG | 21000 fluorescence intensity (a.u.)
TCTGATTGCAATCATTCTTGAATTCTGATACATATTGGATCGGAGTCACCTAGTGCAG | 60300 fluorescence intensity (a.u.)
CATCATGATTCAGATAATTAAATGTCTTCTTTTAACTTGGCGGAGTCACCTAGTGCAG | 12600 fluorescence intensity (a.u.)
TCTTCATAATTTGGAACCGATAGAGTAGTAGTTCATTCTGCGGAGTCACCTAGTGCAG | 4030 fluorescence intensity (a.u.)
GCGAAATTAATCTTTTGGTTGTTTCTACCTTTGCTCTGATCGGAGTCACCTAGTGCAG | 5540 fluorescence intensity (a.u.)
CGGCTCCAATTATCTCCATCTCTCTGTCTCCGTATTGACCCGGAGTCACCTAGTGCAG | 15500 fluorescence intensity (a.u.)
CCTCCCCAATTTACTCCCCTATTTACTCCCTCCACCTCCCCGGAGTCACCTAGTGCAG | 3190 fluorescence intensity (a.u.)
TGGATGATTTTCGGACGTTAGATTTGATGAATAAGGTCCGCGGAGTCACCTAGTGCAG | 11000 fluorescence intensity (a.u.)
ATATATATATATAATTTGCTTAATTCCGAGTCCATATGAGCGGAGTCACCTAGTGCAG | 7060 fluorescence intensity (a.u.)
TTTGTGATTAAGCTCTTGGTCTCGTCTCCGCGAGCTCAGCCGGAGTCACCTAGTGCAG | 5540 fluorescence intensity (a.u.)
TTTATATGTACGTAATTAATTTAGATGAGTGATGAAGATACGGAGTCACCTAGTGCAG | 14300 fluorescence intensity (a.u.)
